# Test results taken from article PMC12820563, “FoxP3 forms a head-to-head dimer in vivo and stabilizes its multimerization on adjacent microsatellites”.
# The other results are listed elsewhere or left out.
# Target: T1, MBP-FoxP1dN (Mus musculus, UniProt P58462 326-579)
# T1 sequence: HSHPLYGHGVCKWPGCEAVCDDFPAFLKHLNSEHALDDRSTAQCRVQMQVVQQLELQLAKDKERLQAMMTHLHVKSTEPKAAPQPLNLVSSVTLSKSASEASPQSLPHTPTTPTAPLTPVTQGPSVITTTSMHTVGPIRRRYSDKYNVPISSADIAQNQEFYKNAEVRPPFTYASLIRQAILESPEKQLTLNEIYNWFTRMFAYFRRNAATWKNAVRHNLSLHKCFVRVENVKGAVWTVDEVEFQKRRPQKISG
# Assay: PD-seq (MBP pull-down with sequencing); 20 mM Tris-HCl pH 7.5, 100 mM NaCl, 1.5 mM MgCl2, 0.4 uM protein, 0.1 uM dsDNA library, 30 min, room temperature, amylose pull-down; high values mean tight binding
# Conditions: protein: recombinant; tags: His6-MBP; chain copies: 2; dsDNA, one strand shown
# How it was run: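 Protein and DNA were mixed at 0.4 µM and 0.1 µM and held for 30 min at room temperature in Tris pH 7.5 buffer with NaCl and MgCl2; the protein was a His6-MBP-tagged, N-terminally truncated mouse FoxP3 or FoxP1 fragment from E. coli, and the DNA a Klenow-filled double-stranded degenerate library. Amylose resin captured the complexes, which were washed three times. Binding is read as reads-per-million enrichment of pull-down versus input after Illumina sequencing, with replicates pooled.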
row,Sequence,binding signal
1,GATGATTGTTCTCCCAGCTGATGAATTTGTGTATTCGAGTAAACAAATTTTCCTAATCTTTCTGTTCAAGCGCCATCTAC,1.98 RPM ratio (pull-down/input)
2,GATGATTGTTCTCCCAGCTGATGAATTCCGTCGATCGAGTAAACAAATTTTCCTAATCTTTCTGTTCAAGCGCCATCTAC,0.898 RPM ratio (pull-down/input)
3,GATGATTGTTCTCCCAGCTGATGAATTCCCACTCTCGAGTAAACAAATTTTCCTAATCTTTCTGTTCAAGCGCCATCTAC,0.819 RPM ratio (pull-down/input)
4,GATGATTGTTCTCCCAGCTGATGAATTCGTCCCATCGAGTAAACAAATTTTCCTAATCTTTCTGTTCAAGCGCCATCTAC,0.922 RPM ratio (pull-down/input)
5,GATGATTGTTCTCCCAGCTGATGAATTAACGTCCTCGAGTAAACAAATTTTCCTAATCTTTCTGTTCAAGCGCCATCTAC,0.844 RPM ratio (pull-down/input)
6,GATGATTGTTCTCCCAGCTGATGAATTTCCAGCCTCGAGTAAACAAATTTTCCTAATCTTTCTGTTCAAGCGCCATCTAC,0.805 RPM ratio (pull-down/input)
7,GATGATTGTTCTCCCAGCTGATGAATTCGAAATCTCGAGTAAACAAATTTTCCTAATCTTTCTGTTCAAGCGCCATCTAC,0.792 RPM ratio (pull-down/input)
8,GATGATTGTTCTCCCAGCTGATGAATTAAGACCGTCGAGTAAACAAATTTTCCTAATCTTTCTGTTCAAGCGCCATCTAC,0.862 RPM ratio (pull-down/input)
9,GATGATTGTTCTCCCAGCTGATGAATTGAAGTTGTCGAGTAAACAAATTTTCCTAATCTTTCTGTTCAAGCGCCATCTAC,1.25 RPM ratio (pull-down/input)
10,GATGATTGTTCTCCCAGCTGATGAATTCTACAGTTCGAGTAAACAAATTTTCCTAATCTTTCTGTTCAAGCGCCATCTAC,0.868 RPM ratio (pull-down/input)
11,GATGATTGTTCTCCCAGCTGATGAATTGGGCATCTCGAGTAAACAAATTTTCCTAATCTTTCTGTTCAAGCGCCATCTAC,1.03 RPM ratio (pull-down/input)
12,GATGATTGTTCTCCCAGCTGATGAATTTAGGTTTTCGAGTAAACAAATTTTCCTAATCTTTCTGTTCAAGCGCCATCTAC,1.08 RPM ratio (pull-down/input)
13,GATGATTGTTCTCCCAGCTGATGAATTTCCTGTCTCGAGTAAACAAATTTTCCTAATCTTTCTGTTCAAGCGCCATCTAC,0.814 RPM ratio (pull-down/input)
14,GATGATTGTTCTCCCAGCTGATGAATTAGATTTGTCGAGTAAACAAATTTTCCTAATCTTTCTGTTCAAGCGCCATCTAC,0.997 RPM ratio (pull-down/input)
15,GATGATTGTTCTCCCAGCTGATGAATTGCACACTTCGAGTAAACAAATTTTCCTAATCTTTCTGTTCAAGCGCCATCTAC,1.24 RPM ratio (pull-down/input)
16,GATGATTGTTCTCCCAGCTGATGAATTTTGCACTTCGAGTAAACAAATTTTCCTAATCTTTCTGTTCAAGCGCCATCTAC,0.981 RPM ratio (pull-down/input)
17,GATGATTGTTCTCCCAGCTGATGAATTGTTTATGTCGAGTAAACAAATTTTCCTAATCTTTCTGTTCAAGCGCCATCTAC,2.77 RPM ratio (pull-down/input)
18,GATGATTGTTCTCCCAGCTGATGAATTTGTGTGGTCGAGTAAACAAATTTTCCTAATCTTTCTGTTCAAGCGCCATCTAC,1.18 RPM ratio (pull-down/input)
19,GATGATTGTTCTCCCAGCTGATGAATTAGAGAAGTCGAGTAAACAAATTTTCCTAATCTTTCTGTTCAAGCGCCATCTAC,0.918 RPM ratio (pull-down/input)
20,GATGATTGTTCTCCCAGCTGATGAATTTGGAACCTCGAGTAAACAAATTTTCCTAATCTTTCTGTTCAAGCGCCATCTAC,0.828 RPM ratio (pull-down/input)
21,GATGATTGTTCTCCCAGCTGATGAATTCTGCCGTTCGAGTAAACAAATTTTCCTAATCTTTCTGTTCAAGCGCCATCTAC,0.832 RPM ratio (pull-down/input)

row,Sequence,binding signal
1,GATGATTGTTCTCCCAGCTGATGAATTCGTGCGGTCGAGTAAACAAATTTTCCTAATCTTTCTGTTCAAGCGCCATCTAC,0.799 RPM ratio (pull-down/input)
2,GATGATTGTTCTCCCAGCTGATGAATTATGTAGATCGAGTAAACAAATTTTCCTAATCTTTCTGTTCAAGCGCCATCTAC,1.06 RPM ratio (pull-down/input)
3,GATGATTGTTCTCCCAGCTGATGAATTTTTAGAGTCGAGTAAACAAATTTTCCTAATCTTTCTGTTCAAGCGCCATCTAC,0.904 RPM ratio (pull-down/input)
4,GATGATTGTTCTCCCAGCTGATGAATTACTAGTGTCGAGTAAACAAATTTTCCTAATCTTTCTGTTCAAGCGCCATCTAC,1.13 RPM ratio (pull-down/input)
5,GATGATTGTTCTCCCAGCTGATGAATTATAACACTCGAGTAAACAAATTTTCCTAATCTTTCTGTTCAAGCGCCATCTAC,1.13 RPM ratio (pull-down/input)
6,GATGATTGTTCTCCCAGCTGATGAATTGTACCGATCGAGTAAACAAATTTTCCTAATCTTTCTGTTCAAGCGCCATCTAC,1.02 RPM ratio (pull-down/input)
7,GATGATTGTTCTCCCAGCTGATGAATTTGCCGTCTCGAGTAAACAAATTTTCCTAATCTTTCTGTTCAAGCGCCATCTAC,0.892 RPM ratio (pull-down/input)
8,GATGATTGTTCTCCCAGCTGATGAATTTGATGCATCGAGTAAACAAATTTTCCTAATCTTTCTGTTCAAGCGCCATCTAC,1.38 RPM ratio (pull-down/input)
9,GATGATTGTTCTCCCAGCTGATGAATTCATCGTCTCGAGTAAACAAATTTTCCTAATCTTTCTGTTCAAGCGCCATCTAC,0.784 RPM ratio (pull-down/input)
10,GATGATTGTTCTCCCAGCTGATGAATTTAGTAAGTCGAGTAAACAAATTTTCCTAATCTTTCTGTTCAAGCGCCATCTAC,0.999 RPM ratio (pull-down/input)
11,GATGATTGTTCTCCCAGCTGATGAATTCGGCCTGTCGAGTAAACAAATTTTCCTAATCTTTCTGTTCAAGCGCCATCTAC,0.781 RPM ratio (pull-down/input)
12,GATGATTGTTCTCCCAGCTGATGAATTGGGTCGTTCGAGTAAACAAATTTTCCTAATCTTTCTGTTCAAGCGCCATCTAC,0.818 RPM ratio (pull-down/input)
13,GATGATTGTTCTCCCAGCTGATGAATTTCGTTTCTCGAGTAAACAAATTTTCCTAATCTTTCTGTTCAAGCGCCATCTAC,0.854 RPM ratio (pull-down/input)
14,GATGATTGTTCTCCCAGCTGATGAATTAGATGTATCGAGTAAACAAATTTTCCTAATCTTTCTGTTCAAGCGCCATCTAC,1.19 RPM ratio (pull-down/input)
15,GATGATTGTTCTCCCAGCTGATGAATTTGATGGATCGAGTAAACAAATTTTCCTAATCTTTCTGTTCAAGCGCCATCTAC,0.898 RPM ratio (pull-down/input)
16,GATGATTGTTCTCCCAGCTGATGAATTTAATATCTCGAGTAAACAAATTTTCCTAATCTTTCTGTTCAAGCGCCATCTAC,0.927 RPM ratio (pull-down/input)
17,GATGATTGTTCTCCCAGCTGATGAATTGGGGGCGTCGAGTAAACAAATTTTCCTAATCTTTCTGTTCAAGCGCCATCTAC,0.886 RPM ratio (pull-down/input)
18,GATGATTGTTCTCCCAGCTGATGAATTATCTGTCTCGAGTAAACAAATTTTCCTAATCTTTCTGTTCAAGCGCCATCTAC,0.945 RPM ratio (pull-down/input)
19,GATGATTGTTCTCCCAGCTGATGAATTTTGACTATCGAGTAAACAAATTTTCCTAATCTTTCTGTTCAAGCGCCATCTAC,1.03 RPM ratio (pull-down/input)
20,GATGATTGTTCTCCCAGCTGATGAATTGCCAACTTCGAGTAAACAAATTTTCCTAATCTTTCTGTTCAAGCGCCATCTAC,0.959 RPM ratio (pull-down/input)
21,GATGATTGTTCTCCCAGCTGATGAATTGTTGATCTCGAGTAAACAAATTTTCCTAATCTTTCTGTTCAAGCGCCATCTAC,2.06 RPM ratio (pull-down/input)

row,Sequence,binding signal
1,GATGATTGTTCTCCCAGCTGATGAATTCATCAGTTCGAGTAAACAAATTTTCCTAATCTTTCTGTTCAAGCGCCATCTAC,0.914 RPM ratio (pull-down/input)
2,GATGATTGTTCTCCCAGCTGATGAATTTTTCGGCTCGAGTAAACAAATTTTCCTAATCTTTCTGTTCAAGCGCCATCTAC,0.799 RPM ratio (pull-down/input)
3,GATGATTGTTCTCCCAGCTGATGAATTGACTTGTTCGAGTAAACAAATTTTCCTAATCTTTCTGTTCAAGCGCCATCTAC,1.08 RPM ratio (pull-down/input)
4,GATGATTGTTCTCCCAGCTGATGAATTGAGTGGATCGAGTAAACAAATTTTCCTAATCTTTCTGTTCAAGCGCCATCTAC,0.83 RPM ratio (pull-down/input)
5,GATGATTGTTCTCCCAGCTGATGAATTATCGTCGTCGAGTAAACAAATTTTCCTAATCTTTCTGTTCAAGCGCCATCTAC,0.884 RPM ratio (pull-down/input)
6,GATGATTGTTCTCCCAGCTGATGAATTAAAGTTGTCGAGTAAACAAATTTTCCTAATCTTTCTGTTCAAGCGCCATCTAC,1.42 RPM ratio (pull-down/input)
7,GATGATTGTTCTCCCAGCTGATGAATTATAAGGCTCGAGTAAACAAATTTTCCTAATCTTTCTGTTCAAGCGCCATCTAC,1.02 RPM ratio (pull-down/input)
8,GATGATTGTTCTCCCAGCTGATGAATTCCCTAGATCGAGTAAACAAATTTTCCTAATCTTTCTGTTCAAGCGCCATCTAC,0.854 RPM ratio (pull-down/input)
9,GATGATTGTTCTCCCAGCTGATGAATTCCCCACGTCGAGTAAACAAATTTTCCTAATCTTTCTGTTCAAGCGCCATCTAC,0.874 RPM ratio (pull-down/input)
10,GATGATTGTTCTCCCAGCTGATGAATTTTGCCACTCGAGTAAACAAATTTTCCTAATCTTTCTGTTCAAGCGCCATCTAC,1.03 RPM ratio (pull-down/input)
11,GATGATTGTTCTCCCAGCTGATGAATTACAACCCTCGAGTAAACAAATTTTCCTAATCTTTCTGTTCAAGCGCCATCTAC,1.18 RPM ratio (pull-down/input)
12,GATGATTGTTCTCCCAGCTGATGAATTTCTACTGTCGAGTAAACAAATTTTCCTAATCTTTCTGTTCAAGCGCCATCTAC,0.83 RPM ratio (pull-down/input)
13,GATGATTGTTCTCCCAGCTGATGAATTAAGGTATTCGAGTAAACAAATTTTCCTAATCTTTCTGTTCAAGCGCCATCTAC,1.03 RPM ratio (pull-down/input)
14,GATGATTGTTCTCCCAGCTGATGAATTCCCAATGTCGAGTAAACAAATTTTCCTAATCTTTCTGTTCAAGCGCCATCTAC,0.873 RPM ratio (pull-down/input)
15,GATGATTGTTCTCCCAGCTGATGAATTCGAATTTTCGAGTAAACAAATTTTCCTAATCTTTCTGTTCAAGCGCCATCTAC,0.906 RPM ratio (pull-down/input)
16,GATGATTGTTCTCCCAGCTGATGAATTAGCGTGGTCGAGTAAACAAATTTTCCTAATCTTTCTGTTCAAGCGCCATCTAC,0.933 RPM ratio (pull-down/input)
17,GATGATTGTTCTCCCAGCTGATGAATTATCCGACTCGAGTAAACAAATTTTCCTAATCTTTCTGTTCAAGCGCCATCTAC,0.935 RPM ratio (pull-down/input)
18,GATGATTGTTCTCCCAGCTGATGAATTCTGACATTCGAGTAAACAAATTTTCCTAATCTTTCTGTTCAAGCGCCATCTAC,0.898 RPM ratio (pull-down/input)
19,GATGATTGTTCTCCCAGCTGATGAATTGTCATCGTCGAGTAAACAAATTTTCCTAATCTTTCTGTTCAAGCGCCATCTAC,1.06 RPM ratio (pull-down/input)
20,GATGATTGTTCTCCCAGCTGATGAATTACCGCGCTCGAGTAAACAAATTTTCCTAATCTTTCTGTTCAAGCGCCATCTAC,0.948 RPM ratio (pull-down/input)
21,GATGATTGTTCTCCCAGCTGATGAATTACTATTTTCGAGTAAACAAATTTTCCTAATCTTTCTGTTCAAGCGCCATCTAC,2.29 RPM ratio (pull-down/input)
